Measurements published in patent publication US9714221B1 (priority 2016, dated 2017).

How the values were obtained:
Experiment in all cases: cells
Conditions in all cases: Homo sapiens, read-out: proliferation MCF7 (WT) IC50 (nM)
[1] = test system: MCF7 cells expressing (and dependent) on mutant estrogen receptor Asp 538 Gly
[2] = test system: MCF7 cells (breast tumor cells) WT
[3] = test system: MCF7 cells expressing (and dependent) on mutant estrogen receptor Tyr 537 Ser

| Compound | IC50 [1] [nM] | IC50 [2] [nM] | IC50 [3] [nM] |
| --- | --- | --- | --- |
| Oc1ccc2c(c1)CCCC(C1CCC(O)CC1)=C2c1ccc(O[C@H]2CCN(CCCF)C2)cc1 (stereo partly drawn) [Example 204, 5-[4-[(3S)-1-(3-fluoropropyl)pyrrolidin-3-yl]oxyphenyl]-6-(4-hydroxycyclohexyl)-8,9-dihydro-7H-benzo[7]annulen-2-ol] | 0.3 |  |  |
| CC(F)(F)c1ccc(C2=C(c3ccc(O[C@H]4CCN(CCCF)C4)cc3)c3ccc(C(=O)O)cc3CCC2)cc1 [Example 219, 6-[4-(1,1-Difluoro-ethyl)-phenyl]-5-{4-[(S)-1-(3-fluoro-propyl)-pyrrolidin-3-yloxy]-phenyl}-8,9-dihydro-7H-benzocycloheptene-2-carboxylic acid] | 9 | 1 | 36 |
| CC1(C)Cc2cc(C3=C(c4ccc(O[C@H]5CCN(CCCF)C5)cc4)c4ccc(O)cc4CCC3)ccc2N1 [Example 70, 6-(2,2-dimethylindolin-5-yl)-5-[4-[(3S)-1-(3-fluoropropyl)pyrrolidin-3-yl]oxyphenyl]-8,9-dihydro-7H-benzo[7]annulen-2-ol] | 1 | 0.2 | 8 |
| Oc1ccc2c(c1F)CCCC(c1ccc(OC(F)F)cc1)=C2c1ccc(O[C@H]2CCN(CCCF)C2)cc1 [Example 143, 6-[4-(difluoromethoxy)phenyl]-1-fluoro-5-[4-[(3S)-1-(3-fluoropropyl)pyrrolidin-3-yl]oxyphenyl]-8,9-dihydro-7H-benzo[7]annulen-2-ol] |  | 0.7 |  |
| [O-][n+]1ccc(C2=C(c3ccc(O[C@H]4CCN(CCCF)C4)cc3)c3ccc(O)cc3CCC2)cc1 [Example 189, 5-[4-[(3S)-1-(3-fluoropropyl)pyrrolidin-3-yl]oxyphenyl]-6-(1-oxidopyridin-1-ium-4-yl)-8,9-dihydro-7H-benzo[7]annulen-2-ol] |  | 12 |  |
| Oc1ccc2c(c1)CCCC(c1ccc(OC(F)F)c(F)c1)=C2c1ccc(O[C@H]2CCN(CCCF)C2)cc1 [Example 66, 6-[4-(difluoromethoxy)-3-fluoro-phenyl]-5-[4-[(3S)-1-(3-fluoropropyl)pyrrolidin-3-yl]oxyphenyl]-8,9-dihydro-7H-benzo[7]annulen-2-ol] |  | 0.4 |  |
| Cn1nnc2ccc(C3=C(c4ccc(O[C@H]5CCN(CCCF)C5)cc4)c4ccc(O)cc4CCC3)cc21 [Example 179, 5-[4-[(3S)-1-(3-fluoropropyl)pyrrolidin-3-yl]oxyphenyl]-6-(3-methylbenzotriazol-5-yl)-8,9-dihydro-7H-benzo[7]annulen-2-ol] |  | 1 |  |
